These are yes or no findings as the source states them, for the method shown. For part of these data: Binding seen in cells or lysates may run through a third protein. Some entries that bind do so weakly or less than the wild type.

Protein sequences, listed by entry. Tags and fused reporters are not part of them. Lines headed by an entry give the natural chain unless they say otherwise; changes in a name come on top. Chains listed by the source or under a name are the forms on record and can include a tag or linker. Residues count along the entry.
UniProt Q14258: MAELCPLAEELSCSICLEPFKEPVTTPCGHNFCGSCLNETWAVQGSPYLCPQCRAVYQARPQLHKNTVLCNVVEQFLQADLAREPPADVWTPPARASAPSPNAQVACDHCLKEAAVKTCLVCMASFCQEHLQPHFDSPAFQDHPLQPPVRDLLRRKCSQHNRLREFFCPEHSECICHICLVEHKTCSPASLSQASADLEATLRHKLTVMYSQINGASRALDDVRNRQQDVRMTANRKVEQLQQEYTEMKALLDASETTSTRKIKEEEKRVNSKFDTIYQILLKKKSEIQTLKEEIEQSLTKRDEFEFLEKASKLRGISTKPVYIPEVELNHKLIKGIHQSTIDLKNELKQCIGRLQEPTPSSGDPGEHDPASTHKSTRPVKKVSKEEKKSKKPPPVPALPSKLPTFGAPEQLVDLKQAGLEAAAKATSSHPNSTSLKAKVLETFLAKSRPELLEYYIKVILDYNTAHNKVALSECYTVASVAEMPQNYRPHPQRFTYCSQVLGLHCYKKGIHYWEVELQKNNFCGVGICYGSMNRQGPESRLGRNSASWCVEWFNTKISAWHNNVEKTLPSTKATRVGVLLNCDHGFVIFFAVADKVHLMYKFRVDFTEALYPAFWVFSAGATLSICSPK
Flag-TRIM25(Δ439-630aa): residues 1-438 of Q14258
UniProt Q61510: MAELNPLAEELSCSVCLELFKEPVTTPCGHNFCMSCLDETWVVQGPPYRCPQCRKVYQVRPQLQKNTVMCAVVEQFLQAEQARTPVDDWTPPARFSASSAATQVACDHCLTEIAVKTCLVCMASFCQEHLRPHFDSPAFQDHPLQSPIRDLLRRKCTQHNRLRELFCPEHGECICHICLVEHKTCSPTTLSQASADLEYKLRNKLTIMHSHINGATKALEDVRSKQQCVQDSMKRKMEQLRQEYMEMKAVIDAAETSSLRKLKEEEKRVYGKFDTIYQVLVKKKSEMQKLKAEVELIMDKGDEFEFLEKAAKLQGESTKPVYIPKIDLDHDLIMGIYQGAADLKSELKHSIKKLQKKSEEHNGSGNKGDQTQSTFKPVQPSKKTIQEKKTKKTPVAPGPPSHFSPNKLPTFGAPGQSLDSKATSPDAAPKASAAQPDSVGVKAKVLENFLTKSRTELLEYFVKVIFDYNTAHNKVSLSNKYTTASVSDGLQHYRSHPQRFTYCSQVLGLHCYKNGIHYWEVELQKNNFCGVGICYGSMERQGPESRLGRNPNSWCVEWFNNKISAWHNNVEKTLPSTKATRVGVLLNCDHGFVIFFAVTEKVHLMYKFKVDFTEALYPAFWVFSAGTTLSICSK
UniProt P15104: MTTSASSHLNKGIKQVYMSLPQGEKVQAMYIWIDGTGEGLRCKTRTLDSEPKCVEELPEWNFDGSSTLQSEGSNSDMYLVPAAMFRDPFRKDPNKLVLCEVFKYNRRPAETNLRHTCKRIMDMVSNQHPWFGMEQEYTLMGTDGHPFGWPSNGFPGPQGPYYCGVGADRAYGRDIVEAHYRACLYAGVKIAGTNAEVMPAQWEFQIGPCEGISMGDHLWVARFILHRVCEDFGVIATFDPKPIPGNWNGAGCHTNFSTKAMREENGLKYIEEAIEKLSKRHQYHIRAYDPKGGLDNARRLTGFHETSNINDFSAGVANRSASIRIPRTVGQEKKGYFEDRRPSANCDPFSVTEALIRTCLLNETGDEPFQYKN
UniProt Q16222: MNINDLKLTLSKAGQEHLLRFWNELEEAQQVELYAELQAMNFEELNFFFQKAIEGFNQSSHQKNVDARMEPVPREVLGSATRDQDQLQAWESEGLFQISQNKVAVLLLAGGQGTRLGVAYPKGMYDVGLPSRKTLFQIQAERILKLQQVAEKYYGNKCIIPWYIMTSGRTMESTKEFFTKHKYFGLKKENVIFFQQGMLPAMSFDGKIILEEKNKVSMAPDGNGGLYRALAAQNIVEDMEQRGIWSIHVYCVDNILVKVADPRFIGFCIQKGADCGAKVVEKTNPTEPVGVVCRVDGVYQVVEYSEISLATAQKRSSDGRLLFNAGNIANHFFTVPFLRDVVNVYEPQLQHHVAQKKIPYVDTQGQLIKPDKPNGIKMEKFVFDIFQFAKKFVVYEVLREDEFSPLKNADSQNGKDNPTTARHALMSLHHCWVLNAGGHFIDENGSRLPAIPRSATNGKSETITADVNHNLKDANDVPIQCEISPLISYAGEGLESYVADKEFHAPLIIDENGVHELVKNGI
UAP1 (NM_003115) Human Recombinant Protein (Q16222-2, form named): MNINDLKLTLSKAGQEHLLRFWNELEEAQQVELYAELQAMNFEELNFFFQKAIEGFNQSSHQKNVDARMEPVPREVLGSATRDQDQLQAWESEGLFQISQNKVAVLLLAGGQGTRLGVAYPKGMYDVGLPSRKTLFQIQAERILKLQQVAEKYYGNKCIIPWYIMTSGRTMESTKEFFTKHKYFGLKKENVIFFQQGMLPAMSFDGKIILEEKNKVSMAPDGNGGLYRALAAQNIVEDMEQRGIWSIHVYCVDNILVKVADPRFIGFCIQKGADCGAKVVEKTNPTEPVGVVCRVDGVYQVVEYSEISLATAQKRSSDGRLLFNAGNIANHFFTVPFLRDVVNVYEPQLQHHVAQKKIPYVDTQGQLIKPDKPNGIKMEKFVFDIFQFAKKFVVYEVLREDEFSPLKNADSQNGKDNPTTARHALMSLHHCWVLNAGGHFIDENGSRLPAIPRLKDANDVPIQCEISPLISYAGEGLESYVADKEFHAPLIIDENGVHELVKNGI
UniProt P15105: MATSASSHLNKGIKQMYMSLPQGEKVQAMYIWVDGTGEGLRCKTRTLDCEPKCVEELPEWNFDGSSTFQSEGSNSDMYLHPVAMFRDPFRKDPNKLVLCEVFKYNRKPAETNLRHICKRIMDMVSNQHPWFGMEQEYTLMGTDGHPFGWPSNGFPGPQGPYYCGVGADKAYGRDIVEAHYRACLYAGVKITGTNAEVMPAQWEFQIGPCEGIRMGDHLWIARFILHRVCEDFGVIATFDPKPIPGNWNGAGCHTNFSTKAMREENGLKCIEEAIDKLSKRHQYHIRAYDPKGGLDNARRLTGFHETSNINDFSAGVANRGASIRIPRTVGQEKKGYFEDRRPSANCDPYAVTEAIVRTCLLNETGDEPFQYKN
UniProt Q91YN5: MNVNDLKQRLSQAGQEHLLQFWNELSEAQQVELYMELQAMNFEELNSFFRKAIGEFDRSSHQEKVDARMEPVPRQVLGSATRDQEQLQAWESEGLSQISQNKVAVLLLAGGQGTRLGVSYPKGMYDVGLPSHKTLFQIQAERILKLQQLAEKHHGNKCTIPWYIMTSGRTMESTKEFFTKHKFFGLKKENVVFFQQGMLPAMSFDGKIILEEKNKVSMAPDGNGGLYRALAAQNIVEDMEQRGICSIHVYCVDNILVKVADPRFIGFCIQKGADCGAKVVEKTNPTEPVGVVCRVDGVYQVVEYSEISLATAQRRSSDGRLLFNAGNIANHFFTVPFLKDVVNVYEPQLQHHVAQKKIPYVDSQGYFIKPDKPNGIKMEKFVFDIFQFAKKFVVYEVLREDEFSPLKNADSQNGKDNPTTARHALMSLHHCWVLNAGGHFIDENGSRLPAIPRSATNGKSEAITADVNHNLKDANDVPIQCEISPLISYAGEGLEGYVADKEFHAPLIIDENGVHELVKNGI

Test [1] has as its target Flag-TRIM25(Δ439-630aa) (UniProt Q14258). Nature of the test: co-IP; HEK293T cells transfected with Flag-TRIM25 (full-length or truncated), Myc-UAP1 and HA-GLUL; Pierce IP lysis buffer, antibody overnight at 4 °C, Protein A&G beads, Western blot.
Test [2] concerns the target Flag-TRIM25 full-length (UniProt Q14258). The description is as above.
The target in test [3] is TRIM25 (NM_005082) Human Recombinant Protein (human) (UniProt Q14258). Briefly: SPR; Biacore T200; recombinant TRIM25 fixed on a Series S CM5 chip; analyte injected at 25 °C, 30 μL/min, 180 s association, 300 s dissociation; regeneration with 10 mM glycine-HCl; both purified.
Test [4] concerns the target YFP(1-154aa)-TRIM25 (UniProt Q14258). Nature of the test: split reporter; bimolecular fluorescence complementation in cells: TRIM25 carrying YFP (aa 1-154) with GLUL or UAP1 carrying YFP (aa 155-238).
The target of test [5] is endogenous TRIM25 (not stated (endogenous in BMSCs; mouse and human BMSCs are used in the paper)) (UniProt Q61510). Briefly: co-IP; endogenous proteins in BMSCs; Pierce IP lysis buffer, antibody overnight at 4 °C, Protein A&G beads, Western blot.

Take “HA-GLUL (from UniProt P15104 1-373) (enzyme)”: the results for the binding result in test [1] and in test [2] were “no binding” and “binds”, respectively.
The matching figures for “Myc-UAP1 (from UniProt Q16222 1-522) (enzyme)”: “no binding” and “binds”.
With “UAP1 (NM_003115) Human Recombinant Protein (from UniProt Q16222-2 1-505) (enzyme)”, the binding entry in test [3] is on record as “binds”.
On to “YFP(155-238aa)-GLUL (from UniProt P15104 1-373) (enzyme)”, for which the binding result in test [4] is “binds”.
Still for that read-out and setting: the entry for “YFP(155-238aa)-UAP1 (from UniProt Q16222 1-522) (enzyme)” is “binds”.
For “endogenous GLUL (from UniProt P15105 1-373) (enzyme)”, in test [5], the binding result was “binds”.
Still for that read-out and setting: the entry for “endogenous UAP1 (from UniProt Q91YN5 1-522) (enzyme)” is “binds”.

The values are drawn from paper PMC12669651.
